Assay results from the BET-seq Pho4 binding data (Le et al. 2018).
Some of the results follow. These are noisy estimates, calculated here from bound and input reads.

The sequences below were run against T1, Pho4 (S. cerevisiae) (UniProt P07270) (assay: relative binding free energy (BET-seq); higher = weaker binding). Conditions: reference: library average.
T1 sequence: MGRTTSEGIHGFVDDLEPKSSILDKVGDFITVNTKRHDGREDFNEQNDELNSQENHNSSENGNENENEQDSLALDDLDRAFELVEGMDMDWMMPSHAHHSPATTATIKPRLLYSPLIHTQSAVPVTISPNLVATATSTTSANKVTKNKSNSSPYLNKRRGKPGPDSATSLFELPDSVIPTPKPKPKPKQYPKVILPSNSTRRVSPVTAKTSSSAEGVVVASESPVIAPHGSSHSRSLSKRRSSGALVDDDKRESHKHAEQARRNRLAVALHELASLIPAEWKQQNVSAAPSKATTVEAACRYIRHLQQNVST

Relative binding free energy, -0.08 kcal/mol:
ATAGGCACGTGTAATT, TTTGACACGTGGCATG, TTATACACGTGGGTCT, AGTTGCACGTGGTATG

Relative binding free energy, 0.09 kcal/mol:
TTACTCACGTGTAGGT, ATTGGCACGTGATGTC, TATTCCACGTGTTGTT, GTACGCACGTGTTGAT

Relative binding free energy, 0.14 kcal/mol:
AAATGCACGTGTGGAA, CATTACACGTGTTTTA, AGGGTCACGTGACAGT, CGGGTCACGTGCTTTG, AGATACACGTGAGTGG, TGTTCCACGTGATGGA, TGGGTCACGTGTTTGC, TGTGTCACGTGTGGCC

Relative binding free energy, 0.15 kcal/mol:
AATTTCACGTGTGGGA

Relative binding free energy, 0.3 kcal/mol:
ATATTCACGTGTTACA, TTACTCACGTGATAGT, TCGTGCACGTGAGGAA

Relative binding free energy, 0.04 kcal/mol:
TCAGTCACGTGCTGGT, TTCGGCACGTGTATGC, GGCTGCACGTGCGAGT, TTTTGCACGTGTCAGT, GGTAACACGTGTAGGA, ATGGACACGTGTTTTG

Relative binding free energy, -0.07 kcal/mol:
AGCGTCACGTGGTCGG, ATAGTCACGTGGGGGT, AGTTACACGTGCGGTA, GCATGCACGTGTGGAG, TAGTACACGTGGGTGA

Relative binding free energy, 0.26 kcal/mol:
TGGTTCACGTGGTTAC, GGCGTCACGTGAGATG

Relative binding free energy, -0.17 kcal/mol:
TTACGCACGTGTAGTA, TGTGACACGTGGTGTC, TGGGGCACGTGGGTTG

Relative binding free energy, 0.03 kcal/mol:
GATGTCACGTGGGTGC, AATTGCACGTGTTATG, TATTACACGTGTTTTG, GTGTACACGTGCGTAG, GTAGACACGTGTTGGA

Relative binding free energy, 0.1 kcal/mol:
TGCGTCACGTGTGTGC, TTTAGCACGTGATTTG, CAGTTCACGTGGGGTC, TTGGCCACGTGTCTTT, CTTAGCACGTGAGGGT

Relative binding free energy, 0.05 kcal/mol:
ATGGACACGTGTGGCA, TGGCGCACGTGGGAAA, ATATACACGTGATGTA, AAGATCACGTGTTTTG, GGTGACACGTGCTGGT, TTATGCACGTGATAGA, ACTTACACGTGTTGGT

Relative binding free energy, 0.2 kcal/mol:
TTATACACGTGTGGCA

Relative binding free energy, 0.18 kcal/mol:
GTCGGCACGTGTGAAA, ATTACCACGTGAGGTG

Relative binding free energy, -0.02 kcal/mol:
TTACGCACGTGGAATG, TAGTACACGTGGGGAG, GGTTACACGTGCGTGG, GTGTACACGTGGAGTC

Relative binding free energy, 0.35 kcal/mol:
GTATTCACGTGATAAG

Relative binding free energy, 0.43 kcal/mol:
TGGTTCACGTGAAAGA

Relative binding free energy, -0.12 kcal/mol:
ATAGGCACGTGTTAGA, GGTGGCACGTGCTTGA, TTTGGCACGTGCTCAT, TGACACACGTGGTTGG

Relative binding free energy, 0.31 kcal/mol:
GGATGCACGTGAGATG, GCCTGCACGTGAGTGT, CGGCTCACGTGTTTGA, AAAATCACGTGGTTTC

Relative binding free energy, 0.39 kcal/mol:
GGGGTCACGTGAGGGA, AGGTTCACGTGATGGG

Relative binding free energy, 0.38 kcal/mol:
TAGTTCACGTGCGGGC

Relative binding free energy, -0.21 kcal/mol:
TCGGGCACGTGCTAGG, GGGCGCACGTGGGGTA

Relative binding free energy, -0.24 kcal/mol:
TGGAGCACGTGGGCAT, GGAAGCACGTGGGCAT

Relative binding free energy, -0.01 kcal/mol:
AATGTCACGTGGACGT, GGAGCCACGTGTAGTG, AAGTACACGTGGGGGC, ATTTGCACGTGATAGA, ACTATCACGTGTTGTG

Relative binding free energy, 0.33 kcal/mol:
GTGGTCACGTGAGAAT

Relative binding free energy, 0 kcal/mol:
GAACGCACGTGTGGGG, TATGGCACGTGGATTT, ATAGACACGTGCGTTT, GGTAGCACGTGTGAAG

Relative binding free energy, 0.37 kcal/mol:
GGTGTCACGTGAGCGA, GGGGTCACGTGAAGGC, TGTATCACGTGAGCGA

Relative binding free energy, 0.27 kcal/mol:
TTTTACACGTGAGAAT, GTTCACACGTGAGGGG, TTTTTCACGTGGTGTG

Relative binding free energy, 0.02 kcal/mol:
TAATGCACGTGTTACT, TGAGGCACGTGAGCGT, GCGGTCACGTGTGGCT, TTTTACACGTGGGATT, GAGGGCACGTGGATAC

Relative binding free energy, 0.24 kcal/mol:
CGGCACACGTGAGGTG, GGCCTCACGTGGTTTT, GGTGTCACGTGAGAGG

Relative binding free energy, 0.28 kcal/mol:
GGGTCCACGTGATGTA

Relative binding free energy, -0.19 kcal/mol:
AGTGGCACGTGGGTAA, ATCTGCACGTGGGGTT, AGGGCCACGTGCGTGG

Relative binding free energy, -0.15 kcal/mol:
TGAGGCACGTGGTGTT, TTATGCACGTGGGTGT, AGTGGCACGTGTCTGG

Relative binding free energy, -0.04 kcal/mol:
ATGATCACGTGGGGCG, GAGCGCACGTGTAGTT, GTGTACACGTGGTGAC, TGTGTCACGTGGGTGG, ACTAGCACGTGGTTGT, GTGGGCACGTGGATCT, TTTGTCACGTGGGTCA

Relative binding free energy, -0.05 kcal/mol:
TTCACCACGTGTGGTG, TGGTGCACGTGCTCGG, CTGTGCACGTGATAGT, ATGAACACGTGTTATG, TTTACCACGTGTGGTT, GTTGACACGTGGGGCG, AATAGCACGTGGGAAG

Relative binding free energy, 0.16 kcal/mol:
TTCAGCACGTGAGGAG, ATATCCACGTGTCGTG, GGTTGCACGTGAGAGA, TAAGTCACGTGACGGT

Relative binding free energy, -0.06 kcal/mol:
CTTATCACGTGTGTAG, TGTAACACGTGGTCTA, TGCGTCACGTGTTTAA, CAGGGCACGTGTAGGA, TATAGCACGTGTCTGA, TTAGACACGTGGATTA

Relative binding free energy, 0.34 kcal/mol:
TTCTACACGTGAGTGT, GCTATCACGTGATGGG

Relative binding free energy, -0.23 kcal/mol:
AGACGCACGTGGTTTG

Relative binding free energy, 0.29 kcal/mol:
TCATTCACGTGTTGGG, TGAGTCACGTGTAAAT

Relative binding free energy, 0.25 kcal/mol:
TTTTACACGTGAGGTC, GGGGTCACGTGGAAGG, ATTTTCACGTGCCTGT

Relative binding free energy, 0.4 kcal/mol:
TGATTCACGTGAGTGA

Relative binding free energy, -0.1 kcal/mol:
AGTAGCACGTGTGAGG, AGGACCACGTGGCGGG, GTATGCACGTGCGTGG

Relative binding free energy, 0.49 kcal/mol:
GGATTCACGTGACGGA

Relative binding free energy, 0.11 kcal/mol:
AGTCTCACGTGTGTGC, TGTGTCACGTGTTCTA, GGAGGCACGTGATAAG, ATATTCACGTGTCTAT, TAGGGCACGTGATGTG, AGAGTCACGTGCGGTA

Relative binding free energy, -0.16 kcal/mol:
CTATGCACGTGGTTTT

Relative binding free energy, 0.21 kcal/mol:
AGAGTCACGTGTTAGA, AGTTGCACGTGAGGTG, AGTATCACGTGTGATG, GATCTCACGTGTAGGG

Relative binding free energy, 0.17 kcal/mol:
GCTTACACGTGGTGTA

Relative binding free energy, 0.36 kcal/mol:
CTATTCACGTGAGGGT

Relative binding free energy, -0.11 kcal/mol:
CTTTGCACGTGGTGGA, ATGTACACGTGGGTTG, AGATACACGTGGTCGT

Relative binding free energy, 0.07 kcal/mol:
ACTAGCACGTGGTAAG, CGGTGCACGTGTTTAT, TGAGGCACGTGTGGTT, TGTATCACGTGTTGAG, GGAAGCACGTGTAGAT, ATCGTCACGTGCTTGT

Relative binding free energy, -0.29 kcal/mol:
CGGCGCACGTGGGGCG

Relative binding free energy, -0.2 kcal/mol:
GTGGGCACGTGCCGAG, CTACGCACGTGGGGGG

Relative binding free energy, -0.18 kcal/mol:
CTCTGCACGTGGGTGG, TGGAGCACGTGGCGCT

Relative binding free energy, -0.13 kcal/mol:
TATGGCACGTGCACGT, ATGTGCACGTGGCTTT

Relative binding free energy, -0.28 kcal/mol:
TTGAGCACGTGCGCGT, GGACGCACGTGGGTGA

Relative binding free energy, -0.09 kcal/mol:
AGTGACACGTGCGTTT, GTTGGCACGTGCTAGA, TTGCGCACGTGTTGGT, GGCTGCACGTGGGCTA, CGGAGCACGTGGCGGA, GACGGCACGTGGTTTA

Relative binding free energy, 0.42 kcal/mol:
ATGATCACGTGAGCGT

Relative binding free energy, 0.22 kcal/mol:
GGGCACACGTGATGTG, TATCACACGTGAGTGT

Relative binding free energy, 0.13 kcal/mol:
TGTCTCACGTGGTGTC, CTAAGCACGTGTGTTA, AGACTCACGTGTTGTG

Relative binding free energy, 0.19 kcal/mol:
GATGTCACGTGAAGAT, ACTTACACGTGTGTTT, GTACTCACGTGGTGTA, TGAATCACGTGGTTTT, TCGTTCACGTGCTTTG

Relative binding free energy, 0.12 kcal/mol:
TGTTGCACGTGAGGTA, AAGTTCACGTGGGGCT, CATGTCACGTGTATTG, TTTTACACGTGGTTTA, ATTAACACGTGAGTGG, GGCTACACGTGTGTTT, GAGTACACGTGTTTAA, TTGGACACGTGTGTAC, ATGGACACGTGTGAGG

Relative binding free energy, 0.23 kcal/mol:
GATTTCACGTGGAGGC, GGAGTCACGTGCATTG

Relative binding free energy, -0.14 kcal/mol:
ATTAGCACGTGGCGTT, CGTGGCACGTGTTTGC, GGTAGCACGTGGGGTA, TTTAGCACGTGGTGTG, TATGGCACGTGGTAGT

Relative binding free energy, 0.06 kcal/mol:
AAAATCACGTGGGTTA, TTATACACGTGGTGGA, CAATGCACGTGTGGGA, TGTGTCACGTGTCCTG, ACTAGCACGTGTAGTT, TACATCACGTGTTTTA, AGCGTCACGTGGTGTA, CTTGTCACGTGGGAGA, TTGAGCACGTGACGTA

Relative binding free energy, 0.32 kcal/mol:
GAAGACACGTGAGGTT, GGATACACGTGTTAAG, TCATTCACGTGTTGGA

Relative binding free energy, -0.03 kcal/mol:
CGTGTCACGTGGTCTA, GGAGACACGTGGTGCG

Relative binding free energy, 0.08 kcal/mol:
AAGGACACGTGTAGTA, GATGGCACGTGTGAGG

Relative binding free energy, -0.25 kcal/mol:
ACCGGCACGTGGGGTA, CAAGGCACGTGGGTTG

Relative binding free energy, 0.46 kcal/mol:
CTTTTCACGTGCCGGG

Relative binding free energy, 0.01 kcal/mol:
TAGGTCACGTGGTCGG, ACAGACACGTGTTGGG
